Here are results for one molecule from patent US20230340055A1 (published 2023).

Like-named read-outs stand apart in the source and are kept apart here.

For test [1], the target named is T1, Human IL-2 Receptor beta, Fc-Tag (Symansis, New Zealand) (human, UniProt P14784 27-240).
T1 construct: extracellular domain; Bought reagent; also called IL-2Rβ; IL-2Rβ-Fc; not shown: Fc-Tag (captured by anti-human IgG (Fc) antibody)
T1 sequence (looked up): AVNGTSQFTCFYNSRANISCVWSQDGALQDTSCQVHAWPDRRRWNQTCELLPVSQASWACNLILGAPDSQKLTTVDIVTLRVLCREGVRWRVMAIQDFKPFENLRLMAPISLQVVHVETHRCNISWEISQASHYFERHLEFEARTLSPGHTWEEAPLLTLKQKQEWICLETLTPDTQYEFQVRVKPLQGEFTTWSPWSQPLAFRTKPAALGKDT
Nature of the test: SPR (Biacore T200), IL-2Rβ-Fc captured on anti-human IgG (Fc) CM5 chip, IL-2 as analyte, multi-cycle kinetics, 1:1 kinetic fit, 25 C. Here is the method: (§1) For the determination of binding kinetics to IL-2Rβ the following chip preparation was used: Human IL-2 Receptor beta, Fc-Tag (Symansis, New Zealand) was diluted in HBS-EP running buffer (GE Healthcare, 10 mM HEPES, 150 mM NaCl, 3 mM EDTA, 0.05% Surfactant P20, pH 7.4) to around 0.25 µg/mL and immobilized at a flow rate of 50 µL/min for 60 s to achieve 300 - 330 response units (RU).
(§2) (50 µL/min flow rate, 60 s contact time, 300 s dissociation time). Double referenced data (subtracted data from the reference flow cell and the buffer only samples) was analysed via a kinetic fit (1:1 binding model) to determine KD, kₐ and kd. Regeneration after each cycle was performed with 3 M MgCl₂.
(Surface plasmon resonance follows binding to a sensor surface in real time, without labels.)

The target in test [2] is T2, Human IL-2 Receptor alpha, Fc-Tag (Symansis, New Zealand) (human, UniProt P01589 22-240).
T2 construct: extracellular domain; Bought reagent; also called IL-2Rα; IL-2Rα-Fc; not shown: Fc-Tag (captured by anti-human IgG (Fc) antibody)
T2 sequence (looked up): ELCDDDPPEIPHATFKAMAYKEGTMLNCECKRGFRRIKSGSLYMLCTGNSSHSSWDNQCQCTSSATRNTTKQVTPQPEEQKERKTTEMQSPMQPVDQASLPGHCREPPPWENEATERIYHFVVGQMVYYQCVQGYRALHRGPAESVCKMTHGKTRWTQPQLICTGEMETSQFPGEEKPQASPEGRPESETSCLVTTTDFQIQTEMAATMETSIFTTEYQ
Nature of the test: SPR (Biacore T200), IL-2Rα-Fc captured on anti-human IgG (Fc) CM5 chip, IL-2 as analyte, multi-cycle kinetics, 1:1 kinetic fit, 25 C. As to the method:
(§3) For the determination of binding kinetics to IL-2Rα the following chip preparation was used: Human IL-2 Receptor alpha, Fc-Tag (Symansis, New Zealand) was diluted in HBS-EP running buffer (GE Healthcare, 10 mM HEPES, 150 mM NaCl, 3 mM EDTA, 0.05% Surfactant P20, pH 7.4) to approx. 0.25 µg/mL and immobilized at a flow rate of 50 µL/min for 60 s to achieve 90 - 110 response units (RU).
as §2

The target of test [3] is T3, IL-2Rβγ (dimeric intermediate affinity IL-2 receptor), human, on cells (human, UniProt P14784 27-551; P31785 23-369).
T3 sequence (looked up) 1: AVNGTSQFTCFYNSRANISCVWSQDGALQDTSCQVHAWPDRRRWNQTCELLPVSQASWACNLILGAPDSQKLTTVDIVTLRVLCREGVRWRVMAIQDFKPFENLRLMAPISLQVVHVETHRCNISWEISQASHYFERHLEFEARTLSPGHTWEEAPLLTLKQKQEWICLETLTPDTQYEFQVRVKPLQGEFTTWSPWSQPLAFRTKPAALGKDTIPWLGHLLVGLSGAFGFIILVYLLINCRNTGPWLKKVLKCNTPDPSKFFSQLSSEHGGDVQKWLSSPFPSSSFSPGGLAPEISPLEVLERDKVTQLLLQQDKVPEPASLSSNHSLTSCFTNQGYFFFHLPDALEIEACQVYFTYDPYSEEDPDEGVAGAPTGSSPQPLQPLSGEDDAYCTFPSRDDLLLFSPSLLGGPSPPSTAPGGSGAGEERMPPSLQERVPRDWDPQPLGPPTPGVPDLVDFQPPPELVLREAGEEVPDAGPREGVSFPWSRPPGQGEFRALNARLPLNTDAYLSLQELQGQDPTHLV
T3 sequence (looked up) 2: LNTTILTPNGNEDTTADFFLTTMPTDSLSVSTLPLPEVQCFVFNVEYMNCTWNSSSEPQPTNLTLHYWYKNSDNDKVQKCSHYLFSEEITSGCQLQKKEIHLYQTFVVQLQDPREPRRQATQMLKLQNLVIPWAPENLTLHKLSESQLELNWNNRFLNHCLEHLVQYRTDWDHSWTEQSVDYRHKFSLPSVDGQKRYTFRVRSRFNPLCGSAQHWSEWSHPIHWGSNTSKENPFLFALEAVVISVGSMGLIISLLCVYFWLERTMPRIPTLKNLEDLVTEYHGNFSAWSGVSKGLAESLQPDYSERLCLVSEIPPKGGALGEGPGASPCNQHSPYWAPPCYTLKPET
Kind of test: cell-based or functional assay.

The target of test [4] is T4, IL-2-Rα/β/γ on the murine CTLL-2 T lymphocyte cell line (murine, UniProt P01590 22-268; P16297 27-539; P34902 23-369).
T4 sequence (looked up) 1: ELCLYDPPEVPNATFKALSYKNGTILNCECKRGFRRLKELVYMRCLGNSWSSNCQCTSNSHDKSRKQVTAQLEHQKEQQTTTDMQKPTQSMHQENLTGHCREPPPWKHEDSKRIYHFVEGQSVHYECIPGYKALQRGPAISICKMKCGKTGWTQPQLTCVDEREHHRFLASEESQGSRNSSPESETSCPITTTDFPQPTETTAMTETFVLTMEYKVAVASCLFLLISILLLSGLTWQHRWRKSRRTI
T4 sequence (looked up) 2: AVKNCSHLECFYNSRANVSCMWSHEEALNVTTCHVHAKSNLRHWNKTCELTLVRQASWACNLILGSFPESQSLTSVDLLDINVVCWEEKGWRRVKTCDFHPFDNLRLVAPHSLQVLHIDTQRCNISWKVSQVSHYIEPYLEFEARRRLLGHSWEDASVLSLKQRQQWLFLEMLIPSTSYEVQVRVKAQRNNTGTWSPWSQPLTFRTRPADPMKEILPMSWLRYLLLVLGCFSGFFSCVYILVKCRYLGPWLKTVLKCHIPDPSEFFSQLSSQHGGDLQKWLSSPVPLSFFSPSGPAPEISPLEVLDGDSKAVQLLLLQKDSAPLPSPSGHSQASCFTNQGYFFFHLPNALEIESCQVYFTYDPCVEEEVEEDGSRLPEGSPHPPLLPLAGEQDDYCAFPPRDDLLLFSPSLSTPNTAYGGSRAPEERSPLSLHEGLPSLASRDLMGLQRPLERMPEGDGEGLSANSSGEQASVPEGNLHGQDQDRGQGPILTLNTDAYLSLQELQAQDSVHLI
T4 sequence (looked up) 3: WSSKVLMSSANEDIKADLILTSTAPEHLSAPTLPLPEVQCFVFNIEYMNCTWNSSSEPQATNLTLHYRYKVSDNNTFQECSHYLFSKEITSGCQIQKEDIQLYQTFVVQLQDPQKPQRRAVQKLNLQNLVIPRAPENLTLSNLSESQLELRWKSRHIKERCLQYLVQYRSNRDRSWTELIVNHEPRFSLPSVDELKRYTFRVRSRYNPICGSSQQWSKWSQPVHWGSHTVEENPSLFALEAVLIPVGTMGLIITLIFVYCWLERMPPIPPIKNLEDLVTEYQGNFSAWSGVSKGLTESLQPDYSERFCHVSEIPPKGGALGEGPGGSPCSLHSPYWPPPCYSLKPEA
Kind of test: cell-based or functional assay.

In test [5] the target is T1, Human IL-2 Receptor beta, Fc-Tag …. Nature of the test: SPR (Biacore T200), IL-2Rβ-Fc captured on anti-human IgG (Fc) CM5 chip, IL-2 as analyte, multi-cycle kinetics, 1:1 kinetic fit, 25 C. As to the method:
For the determination of binding kinetics to IL-2Rβ the following chip preparation was used: Human IL-2 Receptor beta, Fc-Tag (Symansis, New Zealand) was diluted in HBS-EP running buffer (GE Healthcare, 10 mM HEPES, 150 mM NaCl, 3 mM EDTA, 0.05% Surfactant P20, pH 7.4) to around 0.80 µg/mL and immobilized at a flow rate of 50 µL/min for 60 s to achieve 140 - 180 response units (RU).
as §2
The source holds these as a separate data set.

Test [6] has as its target T2, Human IL-2 Receptor alpha, Fc-Tag …. Kind of test: SPR (Biacore T200), IL-2Rα-Fc captured on anti-human IgG (Fc) CM5 chip, IL-2 as analyte, multi-cycle kinetics, 1:1 kinetic fit, 25 C. Here is the method:
For the determination of binding kinetics to IL-2Rα the following chip preparation was used: Human IL-2 Receptor alpha, Fc-Tag (Symansis, New Zealand) was diluted in HBS-EP running buffer (GE Healthcare, 10 mM HEPES, 150 mM NaCl, 3 mM EDTA, 0.05% Surfactant P20, pH 7.4) to approx. 0.67 µg/mL and immobilized at a flow rate of 50 µL/min for 60 s to achieve 80 - 100 response units (RU).
as §2
The source holds these as a separate data set.

Test [7] shares this target. Nature of the test: SPR; KD to IL-2Rα divided by KD to IL-2Rβ of the same compound. Here is the method:
as §3, §1, §2

B1: protein 5a (IL-2 of SEQ ID NO:213; Peprotech, cat # AF-200-02) (ligand)
chain: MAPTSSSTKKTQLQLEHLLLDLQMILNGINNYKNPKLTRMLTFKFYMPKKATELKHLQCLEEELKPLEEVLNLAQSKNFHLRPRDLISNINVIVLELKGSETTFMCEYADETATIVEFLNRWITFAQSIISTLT
notes: also called control wild type IL2 protein 5a
One may read the Kd as the constant that tells how readily two partners part at equilibrium. A higher Kd goes with a looser complex. Turning to B1, the Kd is 654 nM in test [1], 16.2 nM in test [2], 427 nM in test [5] and 8.32 nM in test [6]. For the same molecule, the “EC50 HH cells, STAT5 phosphorylation” value in test [3] came to 0.0561 µg/mL. Further, the “EC50 CTLL-2, STAT5 phosphorylation” value in test [4] worked out at 0.0076 µg/mL. Besides, in test [4], the “Ratio (E50 CTLL-2 cells/EC50 HH cell)” value is 0.136. For the same molecule, the “KD-Ratio (α/β)” value in test [7] worked out at 0.0248.
